In the RNAGym collection of RNA variant scans (doi:10.7554/elife.90254):
Read counts are not given, so values of variants with three or more changes are uncertain.

B1: LINE1-full (parent)
chain: UACGUAGGUGGUUUUCCCCUGAUAGUGCUAAGGGGGCCUGGAAGUUUGGACUGGGCAGAGCUCAACACAGCGUGGCAAAGUGGCUGUGGCUAGACUGCCUCUCUGGAUUCCUCGUCACUCAGCAGGGCAUCUCUGAGAGAAAUGCC

Variants of: B1
Assay: self-cleavage, relative activity (ratio to wild type); higher = more cleavage; in vitro, sequencing; the parent is a self-cleaving ribozyme

Variant	self-cleavage
U13C U20C U85C A136G	0.56
U13C G35A C145U	0.96
U13C G54A A67G U112C U119G A141G	0.27
U13C U73C U102C C123U	1.56
U13C U20G U102C	1.15
U13C G137A A141G A142G	1.33
U13C U96C A121U	0.2
U13C U46C A65G G80A U100A C113U A121G A124G	0.16
U13C U20C C56U U96C A141G	0.05
U13C G72A A136G A142G	1.02
U13C U26C A142G	1.41
U13C U81C U100C	0.61
U13C U46C U73A U115C	1.64
U13C U87C U134G	0.18
U13C U81A U102C	2.02
U13C U46A A59G A117G A124U	0.1
U13C U14C A124G U143A	0
U13C U46C A50G U52A U104A	0.75
U13C U62C C76U A78G U134C	0.06
U13C U46C C71U A92G	0.09
U13C U20A U52A A64G U112C	0
U13C U46C A65G U73A U85A	0.92
U13C U47C A57U	0.11
U13C U29C A30G	1.53

Variant	self-cleavage
U13C U20C U81A A121G G126U	2.53
U13C U62A A129U A140G	0.08
U13C U87A C123U	0.13
U13C U52C U85A	0.05
U13C G88A G93U	0.04
U13C G34U G41A A50G A69U A129U	0.13
U13C U15C U85A	0.12
U13C U15C A57G G82C A121U U130C	0.66
U13C U45C A129G	1.1
U13C U85C U104C	0.37
U13C G36A U87C A94G	0.38
U13C U15C U29A U39A U52A A121C G122U	1.27
U13C U14C U45C A78U U87A A129U G139A	0.22
U13C U14C A140G	1.11
U13C U62A U104C A138G A141G A142G	0
U13C U46C A79G U132C	1
U13C U26C A57U	0.51
U13C U14C U102C	1.29
U13C U23C U134A	1.11
U13C U15A U45C G53A	0.48
U13C G40A A129G	0.91
U13C G82A U143A	0.88
U13C G32A A59G G106A	0.11
U13C U14A G80A A121U A141G	1.67

Variant	self-cleavage
U13C U52A A67G	0
U13C G33U A57U	0.1
U13C U14C U108C U132C	1.75
U13C U52C C111U A138G	1.1
U13C G40A U115C	1.17
U13C U14C U45A	1.1
U13C U85C A141G	0.28
U13C U20A A79G A121G A141G	0.42
U13C U39A A107G U108C A138U	2.3
U13C U52A U62C U96C	0.09
U13C U20G G49A A67U U81A U100A	0.14
U13C U15A U119C A136G	1.21
U13C U14C A64G	0.2
U13C G27A A107G	1.88
U13C U23C A79G U102C	0.57
U13C U45C U62C A78G G97A	0
U13C G53A U73G U100A	0.34
U13C U62C U81C U100C	0
U13C G32A A43G U62C U73A A107G G122A A141G	0.11
U13C U45A G55A	0.22
U13C U62C U73C G86A	0
U13C G125U U130C G137A	0
U13C U20A U109A A140G A141G	0.4
U13C G40A A79U	1.1

Variant	self-cleavage
U13C U81A U112C	1.69
U13C U23A U39A U109C A136G	1.48
U13C U62A C71G A124G U134C A136G	0
U13C U20A U87A U102C	0.03
U13C U15C U47A U52A U85C	0.58
U13C U15A U26C A121U	1.04
U13C G70A A94G A107G	0.1
U13C U46C A107G	2.3
U13C U23C U26C A124U A138G	0
U13C G33A A124G	0.61
U13C G33A A124U	0.92
U13C U87C A121G A138U	0.92
U13C G21A U29A	1.02
U13C U26G U47C A69G	0
U13C U62C U87A	0.1
U13C U23C U109G	0.44
U13C U29C A79G	1.53
U13C U73C U115A A124G	2.85
U13C U39A U46A G49A	1.13
U13C U96C U132A	0.09
U13C G41A U143A	1.16
U13C U39A G44A A107G	0
U13C U20C U29C A142U	1.48
U13C U45C U52A A65U C113U A136G	0.13

Variant	self-cleavage
U13C G33A A77G A138U	1.09
U13C G32A A65U A92G A124U U130C A136G	0
U13C U85A G88U U100A A129G U134C A142G	0.15
U13C U85C U115A	0.19
U13C U73A A138G	1.55
U13C U73A U130C	1.47
U13C U15A A31U U39A A69G	0.77
U13C U15C A57U	0
U13C U91C A138G	1.67
U13C G135A A136G	1.78
U13C U29C G114A U115C A142U	1.37
U13C U14C A42G U62C U104A	0.15
U13C U20A U26C U52A C71U U96A A107G	0.21
U13C G21A U26A U45C U46C A79G U130A A142G	0
U13C U45C U108C	1.45
U13C U85C A121U U134C	0.42
U13C U47A U85A	0.06
U13C U15A U73C	0.64
U13C U23A U62C A94U U102C U112G C113U G137U	0
U13C G72A U108C	1.42
U13C U47C U130C C146A	0.4
U13C U45C A107G	1.02
U13C U15C U20A U26C U39A C76U A142G	1.53
U13C U39C U46C U85A	0.17

Variant	self-cleavage
U13C U26A G72A U73C U132C	1.59
U13C U39C A78U U119A	2.32
U13C U73G A79G	0
U13C U20C G88U	0.17
U13C U14C A64U A92U U96C G114A	0.2
U13C G34U U85A U102C	0.24
U13C U26C G114A A136U	1.46
U13C U85A U87A	0.25
U13C U52A U85C G105A	0.15
U13C U96C U100C	0
U13C U52C A57G C98U U108C	0.21
U13C U15C U87C	0
U13C U62C U100C	0.11
U13C G49A U109C U119A A124U U143A	1.1
U13C U45C G70A	0.14
U13C G34A U73A A121G	1.53
U13C G32A A69U U109C G126A	0.09
U13C G58U A94U	0.1
U13C U47C U115C	1.41
U13C G41A U102C	1.13
U13C U46A A59C G127A	0.79
U13C G32A U112C	1.45
U13C G127A U132C	2.07
U13C U96C U108C U112C	0.54

Variant	self-cleavage
U13C U14C A79G	0.28
U13C G34A A69U U96A	0.04
U13C U73C A117U U134C	1.6
U13C U45C U119C C123A A124G A138G	0.65
U13C U14A A67G	0.61
U13C U15C A79U	2.32
U13C U47A U112C G135A	0.75
U13C U39A U62A	0.13
U13C U62C A107G	0
U13C U26A A57U U62C A78U U108A A136G	0.16
U13C U47A U87C U115A G144A	0.21
U13C U20C U73C	1.39
U13C U52C A129G	0.54
U13C U14A A94G G114U A140G	0.33
U13C U73A U85C	0.21
U13C U15C A77U U134C	0.27
U13C G48A U62C A79U C98U	0.06
U13C U47C A77G A121G	0.97
U13C U26A G72A C146U	1.16
U13C G33C U91C G144A	1.11
U13C U52C U62C U108C	0.46
U13C U91A U130C	0.81
U13C U62A A78C	0.16
